{
  "source": "PubChem BioAssay AID504832",
  "about": "(National Center for Advancing Translational Sciences (NCATS), 2011)",
  "note": "The campaign covered roughly 310,000 compounds. About 18,000 (5.8%) were called active. Inconclusive results, whose numbers are uncertain, are shown with a selection of clear calls. Calls come from the whole dose curve; as a rule, active = well fitted inhibition curve with a large enough effect; inconclusive = small, poorly fitted or top-dose-only effect, or another doubt; inactive = no such curve, though single readings can be large or run the other way. No potency is given beside an inconclusive call; the fits are too rough.",
  "data": [
    {"experiment": "Primary qHTS for delayed death inhibitors of the malarial parasite plastid, 48 hour incubation; note: potency is the fitted concentration of half-maximal effect; tags give direction and shape of the fitted curve", "details": "P. falciparum luciferase growth in erythrocytes; series mostly up to 28.7 µM", "method_in_brief": "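Firefly luciferase activity from engineered P. falciparum reports growth; inhibitors lower the luminescent signal. Cultures contained 2% hematocrit erythrocytes at 0.1% final parasitemia.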", "values": [
      {"compound": "COc1ccccc1NS(=O)(=O)c1cccc(NC(=O)C2CC(=O)N(Cc3ccccc3)C2)c1", "note": "(stereo unspecified)", "Potency": "inconclusive [inhibitor, single point]"},
      {"compound": "CN(CC(=O)NC(=O)NC1CCCCC1)c1ccccc1", "Potency": "inconclusive [inhibitor, single point]"},
      {"compound": "Cc1cccc(Nc2nc(C)nc3c2oc2ccccc23)c1", "Potency": "inconclusive [inhibitor, single point]"},
      {"compound": "O=C(NCc1nnc(SCc2ccc(F)cc2)n1-c1ccccc1)C12CC3CC(CC(C3)C1)C2", "Potency": "active: 9.28 µM"},
      {"compound": "Cc1cc(OCC(=O)OCC(=O)N(C)Cc2ccccc2C)ccc1Cl", "Potency": "inconclusive [inhibitor, single point]"},
      {"compound": "O=C(N/N=C/c1ccc(-c2cccc([N+](=O)[O-])c2)o1)c1cccs1", "Potency": "inactive"},
      {"compound": "COc1cc(Cc2cc(N)nc(N)n2)cc(OC)c1OC", "Potency": "inconclusive [inhibitor, full curve]"},
      {"compound": "O=C(/C=C/c1ccc2ccccc2n1)N1CCN(S(=O)(=O)c2ccccc2F)CC1", "Potency": "inconclusive [inhibitor, single point]"},
      {"compound": "COc1ccc(-c2nc(CC(=O)Nc3cccc(S(=O)(=O)NC4=NCCC4)c3)cs2)cc1", "Potency": "inactive"},
      {"compound": "CCOc1ccc(CCNC(=O)COC(=O)c2nn(C)c(=O)c3ccccc23)cc1OCC", "Potency": "active: 2.94 µM"},
      {"compound": "Cc1ccc(Cn2nnnc2CN2CCC(c3nc4ccc(Cl)cc4[nH]3)CC2)cc1", "Potency": "inconclusive [inhibitor, partial curve]"},
      {"compound": "COc1ccc(Oc2nccc(OC)c2C#N)cc1", "Potency": "inactive"},
      {"compound": "O=C(NCc1ccco1)C1CC(c2c(Cl)cccc2Cl)=NO1", "note": "(stereo unspecified)", "Potency": "inconclusive [inhibitor, single point]"},
      {"compound": "COc1c(Cl)cc(Cl)cc1C(=O)Nc1ccc(CN2CCCCC2)cc1", "Potency": "inconclusive [inhibitor, single point]"},
      {"compound": "NC(=O)c1ccc(CSc2nc3ccccc3s2)cc1", "Potency": "inactive"},
      {"compound": "CC(=O)Nc1ccc(CN2CCCCCC2)cc1", "Potency": "inactive"},
      {"compound": "COc1cccc(NC(=O)[C@H](C)NC(=O)N2CCn3c2nc2ccccc23)c1", "Potency": "inconclusive [inhibitor, partial curve, poor fit]"},
      {"compound": "COc1ccccc1N1CCN(/N=C/c2cccc(O)c2)CC1", "Potency": "inactive"},
      {"compound": "CCOc1ccc(C(=O)NCC2CCCO2)cc1", "note": "(stereo unspecified)", "Potency": "inactive"},
      {"compound": "Cc1ccc(C)c(N2CCN(C(=O)c3ccc4nc(-c5ccco5)c(-c5ccco5)nc4c3)CC2)c1", "Potency": "inconclusive [inhibitor, partial curve, poor fit]"},
      {"compound": "Oc1ccc(Cl)cc1C(C#Cc1ccccc1)N1CCOCC1", "note": "(stereo unspecified)", "Potency": "inconclusive [inhibitor, single point]"}
    ]}
  ]
}
